Data published in article PMC9182378, “Bicyclic Isoxazoline Derivatives: Synthesis and Evaluation of Biological Activity” (Molecules, 2022).

Test system: influenza A/Puerto Rico/8/34 (H1N1) virus
Test: Antiviral activity against influenza virus (inhibition of viral replication)
Settings: for IC50: Influenza A virus, H1N1, read-out: IC50 (half-maximal inhibitory concentration causing 50% inhibition of viral replication)

SMILES | SI (selectivity index CC50/IC50) (CC50/IC50, A/Puerto Rico/8/34 (H1N1)) | IC50 [µM] | SI (selectivity index CC50/IC50)
NC1=NOC2(CCCCCCC2)C1 [Compound 3, 1-Oxa-2-azaspiro[4.7]dodec-2-en-3-amine] | 83 | 6.6 | –
NC1=NOC2CCCCCCC12 (stereo not drawn) [Compound 4, 3a,4,5,6,7,8,9,9a-Octahydrocycloocta[d]isoxazol-3-amine] | – | 22 | 81
CC(N)C12CC3CC(CC(C3)C1)C2 (stereo not drawn) [Rimantadine, reference compound] | – | 67 ± 8 | 6

Like-named read-outs stand apart in the source and are kept apart here.
